The other results are listed elsewhere or left out. Further columns of the screen follow, without active or inactive calls.
target: SUMO-conjugating enzyme UBC9 (Homo sapiens) (UniProt P63279); experiment: blockers of SAE1/SAE2–UBC9 SUMO transfer – biochemical, HTRF, uHTS, primary screen (AID 2006); settings: HTRF SUMOylation assay, SAE1/SAE2 + UBC9, in vitro; average of repeat tests; at 35 µM; stronger effect = higher value
UniProt P63279, sequence (P63279 whole entry, looked up): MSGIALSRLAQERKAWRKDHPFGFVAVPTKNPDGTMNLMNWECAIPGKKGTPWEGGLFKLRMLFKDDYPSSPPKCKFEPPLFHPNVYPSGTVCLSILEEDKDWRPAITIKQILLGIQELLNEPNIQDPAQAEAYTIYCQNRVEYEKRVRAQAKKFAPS

Compound	inhibition [%]
O=C(COc1ccc2oc(-c3ccco3)cc(=O)c2c1)N1CCCCC1	47.5
Cc1nc2ccc(NC(=O)NCc3ccco3)cc2s1	82.2
CCCCC[C@H](O)/C=C/[C@@H]1[C@@H](C/C=C\CCCC(=O)OC)[C@@H](O)C[C@H]1O	74.9
O=[N+]([O-])c1cccc(S(=O)(=O)Nc2nc3ccccc3nc2Nc2cccc(S(=O)(=O)N3CCCCC3)c2)c1	60
COc1ccccc1NC(=O)c1sc2nc(-c3ccco3)ccc2c1N	47.7
COc1ccc(OC)c2c1C(=O)c1ccccc1C2=O	43.6
CSc1ccc(-c2cc(=O)c3ccccc3o2)cc1	58
CC(/C=C1\SC(=S)N(C(C(=O)O)c2ccccc2)C1=O)=C\c1ccccc1 (stereo not given)	63.8
CC(C)CC(=O)Nc1ccc2oc(-c3cccnc3)nc2c1	47.2
COc1ccc(NC(=O)C(=O)N/N=C\c2ccc(CNC(=O)C(=O)Nc3ccc(C)c(C)c3)o2)c(OC)c1	38.9
CCCCn1c(NC(=O)c2ccccc2Cl)c(C#N)c2nc3ccccc3nc21	96.1
CCCNC(=O)c1ccc2c(=O)c(O)c(-c3ccsc3)[nH]c2c1	55.5
O=C(COc1ccc(Cl)cc1)Nc1nnc(-c2ccc3c(c2)CCCC3)o1	45.7
CC1=NN(c2ccc(C(=O)O)cc2)C(=O)/C1=C\c1ccc(OC(=O)c2cccs2)cc1	49.7
COc1ccc(CC2S/C(=N/N=C/c3ccccc3O)NC2=O)cc1 (stereo not given)	66.3
CC(=O)c1ccc2c(c1)C1C=CCC1C(C(=O)O)N2 (stereo not given)	90.8
CCOc1ccccc1Oc1c(C)oc2c(CN3CCN(C)CC3)c(O)ccc2c1=O	42.8
O=C(/C=C/c1ccco1)NC(=S)Nc1ccc(O)c(-c2nc3ccccc3s2)c1	49.4
COc1ccc(Cc2n[nH]c(=S)n2NC(=O)Nc2ccc(Cl)c(Cl)c2)cc1	83.4
N=C1S/C(=C\c2ccco2)C(=O)N1c1ccc2c(c1)OCO2	38.5
CCN(CC)CCNS(=O)(=O)c1ccc2c3c(cccc13)C(=O)N2	56.4
COc1cccc2c(SCC(=O)N/N=C/c3ccc(O)cc3O)cc(C)nc12	55.3

Compound	inhibition [%]
O=C(O)c1ccc(NS(=O)(=O)c2ccc3c(c2)C2C=CCC2C(c2ccccc2F)N3)cc1 (stereo not given)	51
Nc1c(C(=O)NCc2ccco2)c2nc3ccccc3nc2n1CCc1ccccc1	46.6
S=c1[nH]nc(-c2cc(-c3ccccc3)n[nH]2)n1/N=C/c1ccc(Br)s1	38.9
Fc1cccc(-n2c(-c3cccs3)nc3nc4ccccc4nc32)c1	50.4
O=c1[nH]c(Nc2ccc(F)cc2)cc2ccccc12	68.8
Oc1ccc(/C=N/Nc2cc(N3CCCC3)nc(N3CCCC3)n2)cc1O	96.2
CC(C)N(C(=O)Nc1ccc2nccnc2c1)C(C)C	35.4
O=C(N/N=C/c1ccc(O)cc1O)C(=O)N/N=C/c1ccc(O)cc1O	92.5
N#Cc1c(=O)c2nc(NCc3ccccc3)ncc2n2ccccc12	38.1
O=C(Cc1ccccc1Cl)NC1(O)C(=O)c2ccccc2C1=O	77.5
N=C1/C(=C/c2cccn2Cc2ccc(Cl)cc2)C(=O)N=C2SC=CN12	56.6
S=c1[nH]nc(-c2cc(-c3ccccc3)n[nH]2)n1/N=C/c1ccc(Cl)c(Cl)c1	32.3
CCOc1ccc2c(c1)C(NC(C)=O)C(=O)N2CCN1CCOCC1 (stereo not given)	80.7
Cc1cc(C)cc(Oc2coc3c(CN(C)C)c(O)ccc3c2=O)c1	47.4
O=C(Nc1ccc2oc(=O)ccc2c1)c1ccc(-c2cccc(Cl)c2)o1	35.9
CC1CCN(CCCn2c(=S)[nH]c3ccc(N4CCOCC4)cc3c2=O)CC1	62.1
CCOC(=O)C1=C(C)N=c2s/c(=C\c3ccc(OCC(=O)O)cc3)c(=O)n2C1c1ccc(OC(C)C)cc1 (stereo not given)	46.3
CN1C(=O)c2cccc3c(S(=O)(=O)NCCc4ccccc4)ccc1c23	46.5
CCOC(=O)c1c(CSc2ccccc2)n(C)c2cc(Br)c(OCC(O)CNC(CO)(CO)CO)cc12 (stereo not given)	75.9
Cc1ccccc1Nc1cc2ccccc2c(=O)[nH]1	56.3
O=C(Nc1ccc(Cl)c(Cl)c1)Nn1cnnc1	70.3
Cc1cc(C)n(Cc2ccc(C(=O)N/N=C/c3ccc(-c4ccc([N+](=O)[O-])cc4)o3)o2)n1	57.2

Compound	inhibition [%]
CN(C)CCCn1c(N)c(C#N)c2nc3ccccc3nc21	40.4
NC(=O)c1sc2nc(-c3ccco3)ccc2c1N	44.5
CC1=NOC(=O)/C1=C\c1ccc(-c2cc(Cl)ccc2Cl)o1	94.1
CCCCC(=O)NC(c1ccccc1Cl)c1ccc2cccnc2c1O (stereo not given)	57.4
N=c1c2cn[nH]c2nc(SCC(=O)c2ccc(Br)cc2)n1-c1ccc(Br)cc1	38.7
c1coc(-c2nnc(-c3ccco3)nn2)c1	42.8
Cc1[nH]n(-c2ncc(-c3ccccc3)s2)c(=O)c1C(c1ccc(Cl)cc1)C(C#N)C#N (stereo not given)	33.9
CCN(c1ccccc1)c1cc2ccccc2c(=O)[nH]1	44.2
COc1cc(/C=C(\C#N)C(=O)Nc2cccc(C(=O)O)c2)ccc1OCc1ccc(Cl)cc1	61.1
O=C(N/N=C/c1ccc(O)c(O)c1)N/N=C/c1ccc(O)c(O)c1	41.7
NC(=O)CC(NC(=O)Cc1cccc2ccccc12)c1ccc(NC2CCCCCC2)c([N+](=O)[O-])c1 (stereo not given)	54.7
C=CCn1c(NS(=O)(=O)c2ccccc2)c(S(=O)(=O)c2ccc(C)cc2)c2nc3ccccc3nc21	44.3
COc1ccc2c(c1)c(=O)oc1c(C)c(OCc3ccc(C(=O)O)cc3)ccc12	41.7
CC(=O)Nc1ccc(-c2nc3ccc(NC(C)=O)cc3o2)cc1	45.9
Nc1c(C(=O)Nc2ccc(F)cc2)sc2nc(-c3ccco3)ccc12	46.5
CCOc1ccc(N2C(=O)c3ccc(C(=O)OCC(=O)N(CC)C4CCS(=O)(=O)C4)cc3C2=O)cc1 (stereo not given)	33.2
CCN(CC)C(=O)c1sc2nc(-c3ccncc3)[nH]c(=O)c2c1C	41.4
O=C(Nc1ccc2oc(-c3ccc4ccccc4c3)nc2c1)c1ccc2c(c1)OCCO2	41.8
COCCn1c(N)c(C(=O)NCC2CCCO2)c2nc3ccccc3nc21 (stereo not given)	51.2
O=C(N/N=C/c1ccccc1)c1ccc(CN2C(=O)c3cccc4cccc2c34)cc1	61.6
COc1ccccc1Oc1c(C)oc2c(CN3CCN(C)CC3)c(O)ccc2c1=O	35.5
